Results taken from PubChem BioAssay AID602310 (National Center for Advancing Translational Sciences (NCATS), 2012).
In all, about 410,000 compounds went through this assay and about 310 (0.076%) were called active. Another 2% or so got no clear call; they are omitted. Calls follow the shape of the dose curve; as a rule, active = well fitted curve in the direction sought with a large enough effect; inconclusive = small, poorly fitted or top-dose-only effect; inactive = flat fitted curve, though single readings scatter. The entries are a selection whose mix differs from that of the whole data set. Where a structure was tested more than once in an assay, its records may differ in their call.

target: DNA dC->dU-editing enzyme APOBEC-3G (Homo sapiens) (UniProt Q9HC16); experiment: qHTS for Inhibitors of Vif-A3G Interactions: qHTS; settings: HeLa A3G-eYFP + Vif (tagged APOBEC3G with the HIV-1 protein that degrades it), YFP fluorescence, overnight; series mostly up to 46.1 µM; activity, negative = active: at the top concentration; also: nearly all actives have a fitted effect of over 60% in size;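 as to activity, negative = active: hits raise eYFP signal because A3G escapes Vif-driven loss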
Chain of UniProt Q9HC16 (Q9HC16 whole entry, looked up): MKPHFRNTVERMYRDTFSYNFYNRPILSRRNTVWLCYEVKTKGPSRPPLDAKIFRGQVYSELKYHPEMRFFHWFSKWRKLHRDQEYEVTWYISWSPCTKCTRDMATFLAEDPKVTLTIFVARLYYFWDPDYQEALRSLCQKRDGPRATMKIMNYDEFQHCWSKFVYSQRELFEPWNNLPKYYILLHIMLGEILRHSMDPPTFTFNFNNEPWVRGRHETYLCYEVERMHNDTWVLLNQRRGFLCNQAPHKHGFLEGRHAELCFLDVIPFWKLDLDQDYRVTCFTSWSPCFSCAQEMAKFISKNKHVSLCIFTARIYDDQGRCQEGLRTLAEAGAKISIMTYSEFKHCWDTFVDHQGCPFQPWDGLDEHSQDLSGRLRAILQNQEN
How it was run: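 HeLa cells stably expressing Vif and C-terminally eYFP-tagged A3G, seeded overnight at 37 deg C, then exposed to compound by pintool overnight at 37 deg C. Rise in yellow fluorescence (Ex 488/Em 500-530, Acumen) marks blocked Vif-driven A3G degradation.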
% is scaled to controls: 0 for no effect and ±100 for the full control effect; potency is read from the fitted curve at half-maximal effect.

activity, negative = active, inactive:
CC1CCN(C(=O)C(C)Sc2nc(-c3ccccc3)cc(C(F)(F)F)n2)CC1 (stereo not given) -4.84%, OCC1OC(n2cnc3c(=S)nc[nH]c32)C(O)C1O (stereo not given) -9%, COc1ccc(NC(=O)c2oc3ccc(S(=O)(=O)N4CCOCC4)cc3c2C)cc1 -6.44%, O=C(c1ccc(OCCN2CCCCC2)cc1)c1c(-c2ccc(O)cc2)sc2cc(O)ccc12 -24.5%, C=CC[C@@H](CC(=O)N[C@@H](CO)Cc1ccccc1)C(=O)NC[C@@H](OC(=O)[C@@H](CC=C)Cc1ccc(F)cc1)c1ccccc1 -10.3%, O=C(O)CCn1cc(/C=C\C(=O)c2ccc(Cl)cc2)c(-c2cccc(Br)c2)n1 -18.3%, Cn1cc(S(=O)(=O)N2CCCC2)cc1C(=O)N1CCN(c2cccc(Cl)c2)CC1 -22.3%, CC(C)COc1ccc(C(=O)N/C(=C\c2cccc([N+](=O)[O-])c2)C(=O)O)cc1 0.0447%, CCN1CCN(Cc2ccc(NC(=O)c3cc(NC(=O)C(=O)c4c[nH]c5ccccc45)cc(OC)c3)cc2C(F)(F)F)CC1 -20.5%, CCc1ccccc1NC(=O)Cn1nnc(C(=O)NCc2cccc(OC)c2)c1N -25.6%, Cc1ccc(C)c(OCCn2cc(/C=C(\C#N)C(=O)NCC3CCCO3)c3ccccc32)c1 (stereo not given) -0.132%, COC(=O)c1ccccc1NC(=O)Cn1nnc(-c2ccc(OC)cc2)n1 -22.6%, COC(C[C@@H]1O[C@@H]1C(=O)[C@@H](C)OCc1ccccc1)OC 0.814%, CCOc1cccc(CNc2ccc(O)cc2)c1OCc1ccccc1Cl -17.6%, COC(C[C@@H]1O[C@@H]1C(=O)[C@H](C)OCc1ccccc1)OC 1.13%, Cc1ccc(N=C2NC(=O)/C(=C\c3cccs3)S2)cc1C -27.4%, COc1ccc(CNC(=O)c2cc3cc(OC)ccc3oc2=O)cc1 -15.9%, N#C/C(=C/c1ccco1)c1nc2ccccc2s1 -27.2%, N#C/C(=C(/O)COC(=O)c1ccc2c(c1)OCCO2)c1nc2ccccc2[nH]1 -25.2%, O=C(O)c1ccc(Cn2cnc3cccnc32)cc1 -0.528%, COc1ccc(/C=C/c2ccc3ccccc3n2)c(OC)c1 -26.2%, C[C@@H]1CN([C@@H](C)CO)S(=O)(=O)c2ccc(Br)cc2O[C@H]1CN(C)Cc1ccccn1 -9.83%, COc1ccccc1CNS(=O)(=O)c1ccc(-c2cnc(C3CC3)o2)cc1 -15.1%, C(=C\c1ccc2ccccc2n1)/c1ccccc1 4.24%, Cc1ccc(CS(=O)(=O)c2ncc(Cl)c(C(=O)Nc3nnc(C(C)C)s3)n2)cc1 -16.3%, CC(=O)c1ccc(NS(=O)(=O)c2cc(-c3cnc(C4CC4)o3)ccc2C)cc1 -23.2%, COc1ccc(-c2ccoc2)cc1[C@H]1[C@H]2C=CC[C@@H](C)[C@@H]2C(=O)N1Cc1ccccc1 -15.8%, Cc1nnc(N2CCCC(C(=O)Nc3cc(F)ccc3F)C2)c2nn(-c3ccccc3)c(C)c12 (stereo not given) 3.14%, COC(C[C@H]1O[C@H]1C(=O)[C@H](C)OCc1ccccc1)OC -1.83%, COCCCn1c(=O)/c(=C/c2ccccc2OC(C)C)s/c1=C(\C#N)C(=O)Nc1ccc(C(=O)O)cc1 -2.46%, CCOC(=O)/C=c1/s/c(=C/c2ccc3cc(OC)ccc3c2)c(=O)n1CC(=O)NCC1CCCO1 (stereo not given) -0.329%, CC1CC(Nc2ccccc2)c2ccccc2N1C(=O)c1cccnc1 (stereo not given) -31.5%, CCc1ccc(-c2cc(C)no2)cc1S(=O)(=O)NCc1ccco1 -14.3%, C=CC[C@@H](CC(=O)N[C@H](CO)Cc1ccccc1)C(=O)NC[C@@H](OC(=O)[C@@H](CC=C)Cc1ccc(F)cc1)c1ccccc1 2.65%, COc1cccc2c1C(=O)/C(=C/c1ccc(N(C)C)cc1)C2 0.114%, O=C(N/N=C/C(Br)=C\c1ccccc1)c1n[nH]c2c1CCC2 -32%, O=C(C[C@H]1C/C=C\C[C@H](NC(=O)OCC2c3ccccc3-c3ccccc32)C(=O)O[C@H](c2ccccc2)CNC1=O)N[C@H](CO)Cc1ccccc1 -12.7%, CCOc1ccccc1CNC(=O)C1CCN(c2nnc(C)c3c(C)n(-c4ccc(C)cc4)nc23)CC1 0.0846%, COc1cc(-c2noc(C)c2C#Cc2ccsc2)cc(OC)c1OC -30.8%, Cc1ccc(CNC(=O)CCS(=O)(=O)c2ccc3c(c2)CC(C)N3C(=O)C2CC2)cc1 (stereo not given) -19.5%, O=S(=O)(/C(=C/c1ccc(C(F)(F)F)cc1)c1nc2ccccc2[nH]1)c1ccccc1 -22.2%, COC(C[C@H]1O[C@H]1C(=O)[C@@H](C)OCc1ccccc1)OC 4.58%, CC(C)NC(=O)/C(C#N)=C\c1ccc(N(C)C)o1 -18.2%, OCC1OC(n2cnc3c(NCc4ccco4)ncnc32)C(O)C1O (stereo not given) -27%, COC(C/C=C\C(=O)[C@H](C)OCc1ccccc1)OC -4.65%, CCCN1CCC(=O)N(CCSc2ccc(OC)cc2)CC1 -29.9%, CN(C)C(=O)c1cccc(-c2cccc(-c3nc(C(=O)NCc4ccccc4)cc4c3[C@H](CCO)N(S(=O)C(C)(C)C)C4)c2)c1 (stereo not given in full) -5.93%

Potency, active:
C[C@@H]1O[C@@H](O[C@@H]2C(=O)c3c(O)cc(O)cc3O[C@H]2c2ccc(O)c(O)c2)[C@H](O)[C@H](O)[C@H]1O 11.2 µM, O=[N+]([O-])c1cc(O)c2ncccc2c1 11.2 µM, CC(C)n1cc(/C=C/c2cc[n+](C)cc2)c2ccccc21 3.98 µM, COc1cccc(Cn2c3ccc(NC(=O)CCc4ccc(F)cc4)cc3c(=O)n2C)c1 3.98 µM, COc1cc(N2CCCC2)c(OC)cc1/C=C(/C#N)c1ccc(F)cc1 10 µM, CCN(CC)c1ccc(/C=C/c2cccc[n+]2C)c(OC)c1 7.94 µM, CC(=O)Nc1ccc2nc(NC(=O)c3ccc([N+](=O)[O-])o3)sc2c1 12.6 µM, COc1cccc(/C=N/NC(=O)c2[nH]nc3c2CCc2ccccc2-3)c1O 8.91 µM, O=C(Nc1ccc(N2CCOCC2)cc1)c1cccc2ccccc12 10 µM, COc1ccc(N/C=C/C(=O)c2sc(-c3ccccc3)nc2C)cc1 11.2 µM, Oc1ccc(/C=N\Nc2nncc(-c3ccccc3)n2)cc1 11.2 µM, CC(C)CC[n+]1ccccc1/C=C/c1ccc(N(C)C)cc1 10 µM, CCN(CC)c1ccc2cc(-c3nc(-c4cc5ccccc5oc4=O)cs3)c(=O)oc2c1 7.08 µM
